For orientation: % Inhibition means the relative decrease from the control value, in per cent.

SMILES strings stand for the structures. About 540 (0.36%) of roughly 150,000 compounds showed an effect of 50% or more. The list shows a part of the results.

52 compounds from ChEMBL document CHEMBL4888484, “Replenishing the malaria drug discovery pipeline: Screening and hit evaluation of the MMV Hit Generation Library 1 (HGL1) against asexual blood stage Plasmodium falciparum ,using a nano luciferase reporter read-out” (2022) can be followed below.

This experiment relates to Plasmodium falciparum. Kind of experiment: Primary screen in NF54 nanoGlo assay, in single point, at 2uM, 72h; a lower Z score goes with more inhibition. The format is functional, Erythrocyte. The note with it: timepoint 72 hour.
As for `CCCn1ccnc1CCCN(C)S(=O)(=O)N1CCOC(C)(C)C1`, the “% Inhibition” value was -9% and the Z score came out at 1.21.

Turning to `CC(C)n1ccc(C(=O)N[C@@H](C)c2ncnn2C)n1`, the “% Inhibition” value was -9% and the Z score is reported as 1.29.

Turning to `Cc1cc(CNC2C[C@H]3CN(Cc4ccccc4)CCN3C2)ccn1` (some centres undefined), the “% Inhibition” value is on record as -9% and the Z score stood at 1.86.

With `CC12CC(c3ccccc3O1)N(C(=O)c1cccc(F)c1)C(=O)N2c1ccccc1` (centres undefined), the “% Inhibition” value came out at 1% and the Z score is -0.21.

On to `Cc1ccc(CN2C(=O)C3(CCOCC3)C[C@H]2c2nnnn2C(C)(C)C)cc1C`, for which the “% Inhibition” value is listed as -10% and the Z score came to 1.62.

`COc1cccc(CNC(=O)CCc2conc2-c2ccc(C)cc2)c1`: the “% Inhibition” value was -4% and the Z score is reported as 0.55.

Turning to `Cc1c(C)c(C(=O)Nc2cccc(F)c2)n(Cc2ccccc2F)c1C`, the “% Inhibition” value stood at 0% and the Z score is listed as 0.04.

In the case of `O=C(NCC1CCCO1)NC1CC1c1ccccc1F` (centres undefined), the “% Inhibition” value is reported as -12% and the Z score came out at 1.38.

For the compound `CN(C(=O)Nc1ccn(-c2ccc(Cl)cc2C#N)n1)[C@H]1C[C@@H](C(N)=O)C1`, the “% Inhibition” value was -14% and the Z score came out at 1.49.

As for `CC(=O)N[C@@H]1C[C@H](CCc2ccccc2)O[C@H](c2cnn(C)c2C)C1`, the “% Inhibition” value is -1% and the Z score is reported as 0.11.

Consider `COc1ccc(CCc2nc(NC(=O)[C@H](C)N3Cc4ccccc4C3=O)n[nH]2)cc1OC`, for which the “% Inhibition” value is given as 4% and the Z score is -0.48.

Take `CCCCn1ccnc1C1CCN(c2ccnc(C)c2)CC1`: the “% Inhibition” value is on record as 4% and the Z score was -0.71.

In the case of `c1ccc(OCCCn2ccnc2)c(CN2CCCN3CCC[C@H]3C2)c1`, the “% Inhibition” value is -10% and the Z score amounted to 0.95.

`CN(c1nc2c(s1)C[C@@H](c1ccccc1)CC2)S(=O)(=O)c1cccnc1`: the “% Inhibition” value is on record as -10% and the Z score is on record as 1.61.

On to `CO[C@H]1CCC12CCN(S(=O)(=O)c1ccc(Cl)c(Cl)c1)CC2`, for which the “% Inhibition” value is -12% and the Z score was 1.52.

`CCC(C)C(NC(=O)C1CCC(C)CC1)C(=O)NC1CCN(Cc2ccccc2)CC1` (centres undefined): the “% Inhibition” value is given as -3% and the Z score was 0.32.

As to `CCN(C(=O)c1ccc(-c2cncc3ccccc23)cc1)[C@@H](C)CCO`, the “% Inhibition” value is -19% and the Z score came to 2.47.

Consider `CCOC(Cn1cc(C(=O)N[C@@H](C)c2ccc(N3CCOCC3)cc2)nn1)OCC`, for which the “% Inhibition” value is reported as -10% and the Z score stood at 1.6.

For `CN(C)CC1CCN(C(=O)N2CCCCCC2)CC1`, the “% Inhibition” value is listed as -5% and the Z score is 0.75.

As to `CC(O)CC1COCCN1C(=O)NCCc1ccc(Cl)s1` (centres undefined), the “% Inhibition” value was -2% and the Z score is reported as 0.22.

For the compound `CCn1c(CN2CCN(Cc3cc(F)ccc3OC)CC2)nc2cc(S(=O)(=O)N(C)C)ccc21`, the “% Inhibition” value is -10% and the Z score stood at 1.68.

With `O=C(COc1c(F)c(F)c(C(F)(F)F)c(F)c1F)Nc1ccc(Br)cn1`, the “% Inhibition” value is 3% and the Z score was -0.36.

Regarding `Cc1noc(COC(=O)C(C)(C)c2cccc(Cl)c2)n1`, the “% Inhibition” value was -5% and the Z score came to 0.48.

Turning to `CN(C)C[C@@H]1CN(Cc2ccncc2)C[C@H]1NS(=O)(=O)c1ccccc1F`, the “% Inhibition” value is on record as -7% and the Z score is 1.15.

As for `CCc1cc(-c2cnc3ccccc3c2)ccc1NC(C)=O`, the “% Inhibition” value is on record as -3% and the Z score amounted to 0.33.

For the compound `C[C@H](NCCCn1cccn1)c1ccc(F)cc1N(C)C`, the “% Inhibition” value is -17% and the Z score was 1.44.

`CCN(CC)C(=O)N1CCCC(C(=O)NC(c2cccs2)C(C)C)C1` (centres undefined): the “% Inhibition” value was -6% and the Z score turned out to be 0.71.

For the compound `O=C(Nc1ccc2ncc(Cl)n2c1)c1ccc2c(c1)OCO2`, the “% Inhibition” value worked out at 5% and the Z score is recorded as -0.53.

With `COCc1nc2n(n1)CC(NC1CCCc3sccc31)CC2` (centres undefined), the “% Inhibition” value is -13% and the Z score came out at 2.06.

With `Cc1nc2nc(-c3ccc(Cl)cc3)nn2c(C)c1CC(=O)NCc1ccccc1`, the “% Inhibition” value is -5% and the Z score turned out to be 0.81.

As for `CO[C@H]1COCC[C@@H]1NC(=O)c1[nH]c2c(F)cccc2c1C`, the “% Inhibition” value is given as -1% and the Z score is recorded as 0.13.

Regarding `Cc1ccc(C)c(N2CCN(S(=O)(=O)c3cc(-c4nnc(C5CC5)o4)co3)CC2)c1`, the “% Inhibition” value was 9% and the Z score is on record as -1.15.

As to `CN1CCN(C(=O)CN(CCC(F)(F)F)C2CCCC2)CC1`, the “% Inhibition” value is -7% and the Z score came out at 0.93.

Turning to `CN(Cc1ccccc1)c1nnc(-c2ccccc2)n1C`, the “% Inhibition” value is listed as -6% and the Z score is 1.22.

`O=S(=O)(c1cncc(Cl)c1)N1CCOc2ccccc2C1`: the “% Inhibition” value is on record as -13% and the Z score is reported as 1.49.

Regarding `Cc1csc([C@@H](C)CNC(=O)Nc2c[nH]c(=O)c(C)c2)n1`, the “% Inhibition” value amounted to 2% and the Z score is recorded as -0.27.

For `CC1(C)COCN1C(=O)c1cc(OCc2ccccc2)ncn1`, the “% Inhibition” value came to 2% and the Z score is -0.4.

For `CN1CCN(c2ccc(C(F)(F)F)cc2CN[C@H]2CCCc3[nH]ncc32)CC1`, the “% Inhibition” value is 4% and the Z score is -0.67.

Consider `CN1N=C(C(=O)N[C@H]2CC(=O)N(CC3CCCCC3)C2)CCC1=O`, for which the “% Inhibition” value was -15% and the Z score is 1.94.

For the compound `CCc1ccccc1NC(=O)C1CCN(S(=O)(=O)c2cc3c(cc2C)NC(=O)[C@H](CC)O3)CC1`, the “% Inhibition” value was found to be 17% and the Z score is -2.02.

`CN(Cc1ccoc1)C(=O)NCCS(=O)(=O)N(C)C`: the “% Inhibition” value is given as -1% and the Z score was 0.16.

Take `CCOCCCC(=O)N(c1cccc(N2CCCC2)c1)C1CCCCCC1`: the “% Inhibition” value was found to be 4% and the Z score is recorded as -0.74.

Regarding `COc1ccccc1OCC[C@H]1CCN(S(=O)(=O)c2ccccc2C)C1`, the “% Inhibition” value is listed as -9% and the Z score is 1.71.

For `CC(C)(C)NC(=O)C1(N(CCc2c[nH]c3ccccc23)C(=O)c2ccccc2)CCCC1`, the “% Inhibition” value worked out at 30% and the Z score is on record as -3.42.

Take `CCOc1cc(C2C3C(=O)N(c4ccc(Cl)cc4)C(=O)C3ON2c2ccccc2)ccc1OCc1ccccc1` (centres undefined): the “% Inhibition” value was 4% and the Z score is recorded as -0.51.

Take `CCn1ccc(C(=O)N2CCNC(=O)[C@@H](CC(C)C)NC(=O)c3cc(F)ccc3OCCn3cc(nn3)CC2)cc1=O`: the “% Inhibition” value is on record as -10% and the Z score is 1.28.

Take `COc1ccc(CC(=O)N(CC(F)(F)F)[C@@H](C)C2CC2)cc1OC`: the “% Inhibition” value is -4% and the Z score turned out to be 0.55.

Turning to `Cc1ccccc1NC(=O)CC(=O)N1CCNC(=O)[C@@H]1Cc1ccccc1`, the “% Inhibition” value was determined as 4% and the Z score was -0.64.

Take `Cc1sccc1NC(=O)NCCN1CCO[C@@H](C)C1`: the “% Inhibition” value is recorded as -3% and the Z score was 0.65.

For the compound `O=C(NCc1ccc(-n2cncn2)nc1)c1ccncc1`, the “% Inhibition” value was -19% and the Z score is 1.67.

Turning to `CC(C)c1cc(-c2nc([C@]3(c4ccc(F)cc4)CCOC3)no2)nc(N)n1`, the “% Inhibition” value is -8% and the Z score came out at 1.52.

As to `Cc1ccc(NS(=O)(=O)c2ccc(-c3cnc(C4CCCC4)o3)s2)cc1`, the “% Inhibition” value was -5% and the Z score amounted to 0.61.
